From the supplement of paper PMC8821664
Where a name gives a salt, the structure may show the parent alone. Some of the results follow. Repeats are few or missing, and single values can be far off.

Tested on: Beas-2B AQP5-HiBiT reporter cells
Assay: AQP5-HiBiT luminescence relative to vehicle (ratio to vehicle); higher = higher AQP5-HiBiT protein abundance
Settings: 10 µM; 18 h
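Note: monoclonal Beas-2B line stably carrying CMV promoter-driven AQP5-HiBiT, 5,000 cells per well in 384-well plates, lytic HiBiT plus LgBiT NanoLuc luminescence, FDA-approved drug library screen.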

| SMILES | AQP5-HiBiT luminescence |
| --- | --- |
| O=C1CN2Cc3c(ccc(Cl)c3Cl)N=C2N1 [Anagrelide] | 0.816 |
| Cc1ccc(N(CC2=NCCN2)c2cccc(O)c2)cc1 [Phentolamine mesilate] | 1.02 |
| CCCCOCCOCCOCc1cc2c(cc1CCC)OCO2 [Piperonyl butoxide] | 0.748 |
| Nc1nc2c(ncn2COC(CO)CO)c(=O)[nH]1 [Ganciclovir] | 0.999 |
| NCCCC(O)(P(=O)(O)O)P(=O)(O)O [Alendronate] | 0.818 |
| CC(=O)[C@H]1CC[C@H]2[C@@H]3C[C@H](C)C4=CC(=O)CC[C@]4(C)[C@H]3[C@@H](O)C[C@]12C [Medrysone] | 0.668 |
| Cc1nccn1CC1CCc2c(c3ccccc3n2C)C1=O (stereo not given) [Ondansetron hydrochloride] | 0.866 |
| CC[C@H]1OC(=O)[C@H](C)[C@@H](O[C@H]2C[C@@](C)(OC)[C@@H](O)[C@H](C)O2)[C@H](C)[C@@H](O[C@@H]2O[C@H](C)C[C@H](N(C)C)[C@H]2O)[C@](C)(O)C[C@@H](C)[C@@H]2N[C@@H](COCCOC)O[C@H]([C@H]2C)[C@]1(C)O [Dirithromycin] | 0.895 |
| O=C(O)Cc1ccccc1Nc1c(Cl)cccc1Cl [Diclofenac sodium] | 0.869 |
| CC(=O)O[C@]1(C(C)=O)CC[C@H]2[C@@H]3CCC4=CC(=O)CCC4=C3[C@@H](c3ccc(N(C)C)cc3)C[C@@]21C [Ulipristal acetate] | 0.523 |
| CCN(CC)CCOC(=O)c1ccc(N)cc1 [Procaine hydrochloride] | 0.727 |
| Cc1cccn2c(=O)c(-c3nnn[nH]3)cnc12 [Pemirolast potassium] | 1.4 |
| CNC(=O)c1cnn(-c2nc(N)c3ncn([C@@H]4O[C@H](CO)[C@@H](O)[C@H]4O)c3n2)c1 [Regadenoson] | 0.855 |
| COc1cccc2c1C(=O)c1c(O)c3c(c(O)c1C2=O)C[C@@](O)(C(=O)CO)C[C@@H]3O[C@H]1C[C@H](N)[C@@H](O)[C@H](C)O1 [Epirubicin hydrochloride] | 0.737 |
| CC(=O)Oc1ccc(C(c2ccc(OC(C)=O)cc2)c2ccccn2)cc1 [Bisacodyl] | 0.875 |
| COC(=O)[C@@H]1CC2=CC(=O)CC[C@]2(C)[C@@]23O[C@@H]2C[C@@]2(C)[C@@H](CC[C@@]24CCC(=O)O4)[C@H]13 [Eplerenone] | 0.767 |
| COc1cc(C(C)=O)ccc1OCCCN1CCC(c2noc3cc(F)ccc23)CC1 [Iloperidone] | 1.03 |
| CN(C)[C@@H]1C(O)=C(C(N)=O)C(=O)[C@@]2(O)C(O)=C3C(=O)c4c(O)ccc(Cl)c4[C@@H](O)[C@H]3C[C@@H]12 [Demeclocycline hydrochloride] | 0.727 |
| COc1cc(NC(C)CCCN)c2ncccc2c1 (stereo not given) [Primaquine diphosphate] | 0.908 |
| CC[C@H](Nc1ncnc2[nH]cnc12)c1nc2cccc(F)c2c(=O)n1-c1ccccc1 [CAL-101 (Idelalisib, GS-1101)] | 0.733 |

| SMILES | AQP5-HiBiT luminescence |
| --- | --- |
| FC(F)(F)C(Cl)Br (stereo not given) [Anestan] | 0.867 |
| Nc1nc(O)c2ncn(CCC(CO)CO)c2n1 [Penciclovir] | 1.01 |
| CCOC(=O)c1ccc(C#Cc2ccc3c(c2)C(C)(C)CCS3)nc1 [Tazarotene] | 1.15 |
| C[C@H](N)[C@H](O)c1cccc(O)c1 [Metaraminol bitartrate] | 0.735 |
| CC1(C)S[C@@H]2[C@H](NC(=O)[C@H](NC(=O)N3CCNC3=O)c3ccccc3)C(=O)N2[C@H]1C(=O)O [Azlocillin sodium] | 1.1 |
| CCN(CCO)CCCC(C)Nc1ccnc2cc(Cl)ccc12 (stereo not given) [Hydroxychloroquine sulfate] | 1.24 |
| COc1cc2nc(N3CCN(C(=O)C4CCCO4)CC3)nc(N)c2cc1OC (stereo not given) [Terazosin hydrochloride] | 1.39 |
| CC(=O)N(CC(O)CO)c1c(I)c(C(=O)NCC(O)CO)c(I)c(C(=O)NCC(O)CO)c1I (stereo not given) [Iohexol] | 0.949 |
| Cc1nnc(NS(=O)(=O)c2ccc(N)cc2)s1 [Sulfamethizole] | 0.863 |
| O=c1[nH]c(=O)n([C@H]2C[C@H](O)[C@@H](CO)O2)cc1F [Floxuridine] | 0.583 |
| Clc1ccc(COC(Cn2ccnc2)c2ccc(Cl)cc2Cl)cc1 (stereo not given) [Econazole] | 0.695 |
| C=C[C@H]1CN2CC[C@H]1C[C@@H]2[C@@H](O)c1ccnc2ccc(OC)cc12 [Quinidine hydrochloride] | 1.14 |
| CCCS(=O)(=O)Nc1ccc(F)c(C(=O)c2c[nH]c3ncc(-c4ccc(Cl)cc4)cc23)c1F [Vemurafenib (PLX4032, RG7204)] | 0.277 |
| Cc1ccc(=O)n(-c2ccccc2)c1 [Pirfenidone] | 0.799 |
| COc1ccccc1OCC(O)CO (stereo not given) [Guaifenesin] | 0.723 |
| NC(=O)CC[C@H](N)C(=O)O [L-Glutamine] | 0.76 |
| COCCOC(=O)C1=C(C)NC(C)=C(C(=O)OC(C)C)C1c1cccc([N+](=O)[O-])c1 (stereo not given) [Nimodipine] | 0.517 |
| CCOC(=O)N[C@@H]1CC[C@@H]2[C@@H](C1)C[C@H]1C(=O)O[C@H](C)[C@H]1[C@H]2/C=C/c1ccc(-c2cccc(F)c2)cn1 [Vorapaxar sulfate] | 0.835 |
| CCc1c(C)[nH]c2c1C(=O)C(CN1CCOCC1)CC2 (stereo not given) [Molindone hydrochloride] | 0.71 |
| Cc1cc(/C=C/C#N)cc(C)c1Nc1ccnc(Nc2ccc(C#N)cc2)n1 [Rilpivirine] | 0.678 |
